Data published in the supplement of paper PMC4166925.
± gives the standard deviation of the averaged measurements. The full ranking holds about 33,000 sequences; the median of “E-score (dimensionless, -0.5 to 0.5)” is about -0.049, and the highest 2% start at about 0.37. The list shows a part of the results.

Test system: T1, PmTbr T-box DNA-binding domain (GST fusion)
T1 sequence: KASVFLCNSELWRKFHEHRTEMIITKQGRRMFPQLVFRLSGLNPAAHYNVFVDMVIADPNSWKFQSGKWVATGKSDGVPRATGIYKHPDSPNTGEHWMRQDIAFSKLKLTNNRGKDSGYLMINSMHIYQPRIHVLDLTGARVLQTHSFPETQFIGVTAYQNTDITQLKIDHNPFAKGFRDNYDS
Experiment: PBM E-score of 8-mer (E-score (dimensionless, -0.5 to 0.5)); Tbr is Tbrain of the sea star Patiria miniata (Pm) or the sea urchin Strongylocentrotus purpuratus (Sp); higher = stronger binding preference; most listed sequences are background and not binding sites
Conditions: the construct has about 5 more residues each side
In short: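 Each ungapped 8-mer received an enrichment E-score from the Universal PBM Analysis Suite, averaged over duplicate arrays. The proteins were Tbr T-box DNA-binding domains, covering the whole T-box plus about five flanking residues, fused to GST and expressed in BL21 E. coli at 20 °C before glutathione affinity purification. Universal Agilent oligonucleotide arrays were made double-stranded by primer extension and incubated with 200 nM protein in PBS (pH 7.5). The arrays were then scanned and quantified, and every 8-mer was scored from probe intensities.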

Row | Sequence | PBM E-score of 8-mer
1 | AGCACTGA | 0.131 ± 0.018
2 | AACAGCCT | 0.145 ± 0.021
3 | ATCCTGAC | -0.00634 ± 0.065
4 | CCCAGGGA | -0.231 ± 0.034
5 | TGGAGTAA | -0.0512 ± 0.084
6 | CGAAATCC | -0.0303 ± 0.045
7 | CGCTAACA | 0.351 ± 0.0051
8 | CGAGTATA | -0.0319 ± 0.0045
9 | ACATATGC | 0.0165 ± 0.035
10 | TCTTGCAA | 0.157 ± 0.0081
11 | ATATTTTA | -0.142 ± 0.096
12 | ATCAGTAG | -0.16 ± 0.021
13 | ATCCGACC | -0.294 ± 0.032
14 | AGGTAAAG | -0.00262 ± 0.00052
15 | ACTGCGCA | -0.0512 ± 0.015
16 | AATTACTG | -0.0968 ± 0.00041
17 | ACCCCATC | -0.148 ± 0.095
18 | ACAGTTGA | 0.137 ± 0.036
19 | CATGGACC | -0.238 ± 0.053
20 | CCCATAAC | -0.0502 ± 0.043
21 | AGTTTATA | 0.0231 ± 0.036
22 | ATGGCGTC | 0.066 ± 0.016
23 | CGAATTAA | 0.0165 ± 0.093
24 | AAACGTGC | 0.232 ± 0.023
25 | AGCTTCCG | -0.106 ± 0.013

Row | Sequence | PBM E-score of 8-mer
26 | CCATGTCG | 0.177 ± 0.027
27 | CCGGACCA | -0.2637 ± 0.00096
28 | ACAAGCCC | -0.283 ± 0.056
29 | ACTTGCGA | 0.386 ± 0.006
30 | AAGTATAT | -0.0983 ± 0.071
31 | ATTGATCC | 0.0355 ± 0.003
32 | TAACGTTA | -0.118 ± 0.11
33 | TCGCGCGA | 0.3886 ± 0.0024
34 | AGAACTAG | -0.0544 ± 0.026
35 | CGAATACC | 0.0788 ± 0.04
36 | AGATCCAA | -0.13 ± 0.11
37 | CAAGTGCG | 0.389 ± 0.015
38 | GGGTCGAA | 0.0847 ± 0.033
39 | CGCAGAAG | 0.0263 ± 0.058
40 | ATACCGGA | -0.128 ± 0.039
41 | AGGCCGGG | -0.214 ± 0.037
42 | AGATCTCC | -0.132 ± 0.071
43 | CTATCGCA | 0.295 ± 0.0089
44 | GCCTTGTA | -0.0361 ± 0.051
45 | ATGTGACA | 0.4393 ± 0.0026
46 | CGTAGGTA | -0.283 ± 0.011
47 | CCCAATCA | -0.0355 ± 0.011
48 | AAACTCAC | 0.106 ± 0.012
49 | ACGACTGC | -0.053 ± 0.071
50 | GAGCCACA | 0.129 ± 0.015

Row | Sequence | PBM E-score of 8-mer
51 | CGCCAAAG | 0.161 ± 0.0029
52 | ATAGATTG | -0.106 ± 0.034
53 | CTGTGCTA | 0.0225 ± 0.0027
54 | CATGCCTA | -0.384 ± 0.024
55 | CCCTCGCC | -0.00497 ± 0.0074
56 | TTGCCAAA | 0.11 ± 0.066
57 | AACCCTGA | -0.108 ± 0.0053
58 | TACAAACA | 0.0912 ± 0.0067
59 | CCGGCACC | 0.306 ± 0.0099
60 | CTTATGCC | -0.0845 ± 0.1
61 | CACGCGCG | 0.323 ± 0.012
62 | ATCGATTG | -0.0412 ± 0.022
63 | AACGCCAG | 0.0237 ± 0.0043
64 | GCAAGGGC | -0.184 ± 0.095
65 | CATCCCGG | -0.28 ± 0.0046
66 | ACCTGTAG | 0.173 ± 0.054
67 | ACAAGAAG | -0.105 ± 0.037
68 | ATAAGAGG | -0.0944 ± 0.061
69 | GTGGCAGA | 0.00178 ± 0.0022
70 | ATGTGCCG | 0.0963 ± 0.036
71 | GAACATGA | -0.108 ± 0.04
72 | CCGCTTAC | -0.113 ± 0.077
73 | CGAAATTA | 0.116 ± 0.044
74 | CTACCTGC | -0.0287 ± 0.065
75 | CACGACCA | 0.0508 ± 0.0062

Row | Sequence | PBM E-score of 8-mer
76 | ATCCGAGA | -0.146 ± 0.0062
77 | AGGTATAG | -0.096 ± 0.03
78 | CTGAACAC | 0.125 ± 0.019
79 | AGCCATCC | -0.151 ± 0.054
80 | GCGTAGGA | -0.04 ± 0.069
81 | CACAGCCA | -0.0334 ± 0.062
82 | AGCTGGGA | -0.0311 ± 0.0099
83 | GAGTACCC | 0.0315 ± 0.01
84 | CGCCCAGC | 0.0496 ± 0.11
85 | AGGCCGTC | -0.21 ± 0.012
86 | ATATTAAG | -0.056 ± 0.14
87 | GCAACGCC | 0.189 ± 0.041
88 | AAATGACC | -0.12 ± 0.015
89 | AAAACTTT | -0.0193 ± 0.06
90 | AACGGCCA | 0.0414 ± 0.0074
91 | CACTGGTC | -0.173 ± 0.027
92 | GCGTCAAA | 0.343 ± 0.018
93 | CGGTTACC | -0.127 ± 0.0093
94 | ACACGCGT | 0.2 ± 0.036
95 | AGTTGCTC | 0.0211 ± 0.015
96 | CGAAACGC | -0.00295 ± 0.014
97 | GAATGCCA | -0.0279 ± 0.024
98 | AGTAGCGG | -0.0625 ± 0.095
99 | ATCCTTTC | -0.2369 ± 0.0022
100 | GGCCTAAA | -0.147 ± 0.016

Row | Sequence | PBM E-score of 8-mer
101 | ACAGACAG | -0.0428 ± 0.02
102 | ACCAGTGG | -0.165 ± 0.035
103 | ACTGTCGA | 0.191 ± 0.01
104 | GACGTCGA | -0.098 ± 0.0024
105 | GGCGGGGA | -0.0683 ± 0.085
106 | CCGATCTA | -0.185 ± 0.016
107 | ACAGTGGT | -0.0119 ± 0.05
108 | CAAGCTTC | -0.2619 ± 0.0003
109 | ACGGAACA | -0.0669 ± 0.063
110 | ACCGGCTG | -0.307 ± 0.019
111 | CTTACTGC | -0.049 ± 0.048
112 | GTTATCAA | 0.131 ± 0.076
113 | ACCGCGAA | 0.259 ± 0.018
114 | GCGACGTA | -0.155 ± 0.04
115 | CATACCCC | -0.18 ± 0.035
116 | CCAATAAC | 0.0548 ± 0.014
117 | GGTCATAC | -0.0716 ± 0.021
118 | GCCCCTCA | -0.00751 ± 0.012
119 | AACGTGAA | 0.11 ± 0.053
120 | ATCAGCGA | 0.146 ± 0.047
121 | CTTATGGA | -0.165 ± 0.063
122 | ATCGATCG | 1e-05 ± 0.034
123 | ATGATGGA | -0.173 ± 0.0018
124 | AATAGCTC | -0.124 ± 0.02
125 | CGACACGC | 0.184 ± 0.034

Row | Sequence | PBM E-score of 8-mer
126 | CAGGCTGG | -0.0965 ± 0.095
127 | CTAATCCC | -0.23 ± 0.019
128 | AAGCACAC | 0.201 ± 0.0026
129 | CTATCGGA | -0.152 ± 0.04
130 | ATCCCGGC | -0.3 ± 0.057
131 | AAAGCGCG | 0.314 ± 0.016
132 | AAGTCTGC | 0.0421 ± 0.0067
133 | CTAGACCC | -0.0979 ± 0.07
134 | TGTTTCAA | -0.0292 ± 0.082
135 | ATTTCCGA | -0.0615 ± 0.018
136 | GCAATATA | 0.0293 ± 0.12
137 | AACAAAGA | 0.0244 ± 0.041
138 | AAACAGCA | 0.0668 ± 0.026
139 | CTGTGCGA | 0.236 ± 0.011
140 | CTGGAGTA | -0.0592 ± 0.074
141 | CGTGAGTC | 0.0932 ± 0.04
142 | GCTACGGA | -0.174 ± 0.0021
143 | CAACACGC | 0.229 ± 0.019
144 | CGCCCATC | -0.00351 ± 0.13
145 | AGACTTCG | -0.0953 ± 0.026
146 | ACCCCCAA | 0.00527 ± 0.078
147 | ACGCCTAA | 0.235 ± 0.025
148 | AAACCTCC | -0.217 ± 0.093
149 | AGTTCTGC | -0.332 ± 0.0036
150 | ACTAATAA | -0.0146 ± 0.0047

Row | Sequence | PBM E-score of 8-mer
151 | CGCGTACG | 0.102 ± 0.016
152 | ACTCCGAT | -0.0934 ± 0.086
153 | ATGGGCTC | -0.154 ± 0.16
154 | CGATCTAG | 0.025 ± 0.0082
155 | AGACCTTG | -0.174 ± 0.013
156 | CTGCGCCA | 0.0685 ± 0.04
157 | AACTTCGC | 0.108 ± 0.035
158 | TGTCCGAA | -0.175 ± 0.07
159 | AGGTTGAG | -0.123 ± 0.083
160 | ATAATGAC | -0.037 ± 0.054
161 | AACCTCTA | -0.151 ± 0.025
162 | CTGTTTTC | 0.0165 ± 0.019
163 | ACAGGAGC | 0.052 ± 0.02
164 | CCAGCAGG | -0.133 ± 0.045
165 | GTGCGGTA | 0.0887 ± 0.027
166 | AGCTCAAT | -0.213 ± 0.0047
167 | AGTAGAGC | 0.00365 ± 0.047
168 | CTTACTCA | -0.0983 ± 0.016
169 | AACTGGAG | -0.0661 ± 0.0033
170 | ATAGAAAC | -0.231 ± 0.036
171 | AACGTATC | -0.171 ± 0.048
172 | CCGGTACC | -0.167 ± 0.048
